According to paper PMC6919601, “Identification of Plasmodium dipeptidyl aminopeptidase allosteric inhibitors by high throughput screening” (PLoS ONE, 2019):
About 230 (0.21%) of roughly 110,000 compounds showed an effect of 50% or more. The list shows a part of the results.

Each molecule was assayed against DPAP1 (Plasmodium falciparum, UniProt Q8IIJ9) (assay: primary screen, percent inhibition; read by cleavage of a fluorogenic dipeptide substrate; higher = more effect of the substance).
Parameters: species or system P. falciparum D10 trophozoite lysates; single well
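Further: 30 min substrate incubation versus DMSO and 10 µM JCP410 controls.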

Chain of DPAP1 (Q8IIJ9 whole entry, looked up): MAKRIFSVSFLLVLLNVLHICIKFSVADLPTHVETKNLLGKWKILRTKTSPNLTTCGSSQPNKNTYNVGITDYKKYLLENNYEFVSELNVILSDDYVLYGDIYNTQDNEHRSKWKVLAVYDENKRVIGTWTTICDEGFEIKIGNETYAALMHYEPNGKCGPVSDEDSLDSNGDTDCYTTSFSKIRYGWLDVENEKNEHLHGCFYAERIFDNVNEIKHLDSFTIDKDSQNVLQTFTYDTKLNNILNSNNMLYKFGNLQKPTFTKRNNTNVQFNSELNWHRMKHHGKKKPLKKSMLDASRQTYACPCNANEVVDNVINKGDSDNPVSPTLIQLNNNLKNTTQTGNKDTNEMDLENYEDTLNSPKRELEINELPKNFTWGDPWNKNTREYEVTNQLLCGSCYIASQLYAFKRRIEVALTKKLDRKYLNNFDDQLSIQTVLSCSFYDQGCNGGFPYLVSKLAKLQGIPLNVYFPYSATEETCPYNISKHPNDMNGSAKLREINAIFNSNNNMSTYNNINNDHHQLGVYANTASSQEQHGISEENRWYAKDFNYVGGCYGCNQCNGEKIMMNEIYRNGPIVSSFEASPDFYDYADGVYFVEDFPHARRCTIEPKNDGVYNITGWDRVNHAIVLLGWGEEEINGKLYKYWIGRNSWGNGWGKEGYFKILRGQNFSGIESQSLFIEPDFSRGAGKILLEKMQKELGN

| Compound | % Inhibition @ 10 uM |
| --- | --- |
| CC1CN(S(=O)(=O)c2cccc(C(=O)O)c2)CC(C)O1 (stereo not shown) | -2.39% |
| Cc1ccc(OCCCCCCN2CCCC2)cc1 | -0.636% |
| O=C(CSc1nc(-c2ccc(Cl)cc2)c[nH]1)NC1CCCCC1 | -0.999% |
| O=C(c1ccccc1-c1nc2ccccc2[nH]1)N1CCCCC1 | -4.21% |
| O=C(O)c1ccccc1-c1ccccc1C(=O)Nc1nc(-c2ccccc2)cs1 | -5.63% |
| O=C(O)Cc1c(O)nc2ccc(Br)cc2c1-c1ccccc1 | 3.12% |
| CCOC(=O)/C(C#N)=C/c1c(C)cc(C)cc1C | -5.36% |
| N#CCNC(=O)[C@H](Cc1ccccc1Cl)NC(=O)c1ccccc1 | -0.214% |
| CN(Cc1ccccc1)C(=O)c1cc2c(s1)-c1ccccc1SC2 | -4.04% |
| O=C(c1ccc(F)cc1)C(c1ccccc1)N1CCCC1 (stereo not shown) | -3.74% |
| COc1ccccc1-c1c(C)nn2c(SCC(=O)NCc3ccc4c(c3)OCO4)cc(C)nc12 | -1.7% |
| COc1ccc(N2CCN(Cc3c(C)n(C)n(-c4ccccc4)c3=O)CC2)cc1 | -1.21% |
| Cc1ccc(-n2nc(C)c3c(C(=O)NCCN4CCOCC4)cc(C)nc32)cc1 | 2.35% |
| NC(=O)c1nc(-c2cc(Br)ccc2O)nc2c1nc(O)n2-c1cccc(Cl)c1 | -0.72% |
| CN(C)c1ccc(/C=C2/SC(=O)N(CNc3ccccc3F)C2=O)cc1 | 5.73% |
| CCOC(=O)N1CCC(NC(=O)CN2C(=O)CSc3ncccc32)CC1 | -0.637% |
| Cc1c2cnn(CC(=O)N3CCC(N4CCCCC4)CC3)c(=O)c2c(C)n1Cc1ccccc1 | -0.447% |
| CCC(=O)NC(c1ccccc1OC)c1cc(Cl)c2cccnc2c1O (stereo not shown) | 3.98% |
| N#CCNC(=O)C(CCSc1ccccc1Cl)NC(=O)c1ccccc1 (stereo not shown) | -7.21% |
| CCOc1ccccc1/C=C1/NC(=S)NC1=O | 5.31% |
| COc1cc(C)c(CN2CCN(c3ncccn3)CC2)cc1C | 1.4% |
| O=C(OC1COC(c2ccc(Br)cc2)OC1)c1ccc(Br)cc1 (stereo not shown) | 4.54% |

| Compound | % Inhibition @ 10 uM |
| --- | --- |
| CC(C)C(=O)Nc1nc(O)c2ncn(C3OC(CO)C(O)C3O)c2n1 (stereo not shown) | 0.561% |
| COc1ccc(OC)c(C2C(C(=O)c3ccccc3)=C(O)C(=O)N2CC(C)O)c1 (stereo not shown) | 2.09% |
| CCOC(=O)c1[nH]c(C)c(CN(CCc2ccc(OC)c(OC)c2)C(=O)CCCC(=O)O)c1C | 2.57% |
| O=C(Nc1nc2nccc(-c3ccccc3)n2n1)c1ccco1 | 2.95% |
| Cc1ccc2nc(N(CCCN(C)C)C(=O)c3ccc(S(=O)(=O)N(C)C)cc3)sc2c1 | 0.49% |
| COc1ccc(N2CCN(C(=O)c3cccc(OC)c3OC)CC2)cc1 | -0.545% |
| O=C(Nc1cccs1)NC1CCCc2ccccc21 (stereo not shown) | -5.15% |
| CCc1ccc(OCC(=O)Nc2ccc(C(C)=O)cc2)cc1 | -10.5% |
| Cc1ccc(C(=O)OCCc2ccccc2)cc1S(=O)(=O)N1CCOCC1 | 10.4% |
| O=C(CN(CCc1ccccc1)S(=O)(=O)c1cc(Cl)ccc1Cl)N1CCOCC1 | -6.27% |
| COc1ccc(/C=C2\SC(=O)N(c3cccc(O)c3)C2=O)cc1OC | 14.3% |
| Cc1cc(O)n2nc(N)c(N)c2n1 | -0.396% |
| CSc1[nH]c2ccccc2c1CCN1CCCC1 | 1.17% |
| COc1cccc(-n2c(SCC(=O)N3CC(C)CC(C)C3)nc3nnc(C)c-3c2N)c1 (stereo not shown) | -0.458% |
| COc1ccc(Cl)cc1C(=O)Nc1ccc(S(=O)(=O)N2CCC(C)CC2)cc1 | 1.83% |
| Cc1cc(NC(=O)COc2ccccc2)ccc1Cl | -4.82% |
| Clc1ccc(CN2CCN(c3ccccn3)CC2)cc1 | -3.82% |
| COCc1cc(O)n2nc(C)nc2n1 | -2.91% |
| Cc1ccc(C)c(OCCOCCN2CCN(C)CC2)c1 | 4.57% |
| CCn1c2ccccc2c2cc(C3C(C#N)=C(N)Oc4[nH]nc(C)c43)ccc21 (stereo not shown) | 3.05% |
| CCN(CC)C(=O)CCCOc1ccc(Cl)cc1Cl | 5.55% |
| C=CCOc1ccccc1CN1CCSCC1 | 2.7% |

| Compound | % Inhibition @ 10 uM |
| --- | --- |
| CCOC(=O)C1=C(N)OC2=C(C(=O)CC(C)(C)C2)C1c1ccc(O)c(OC)c1 (stereo not shown) | -5.7% |
| Cc1ccc(-c2nn(C)c(=O)c3ccccc23)cc1CNC(=O)c1ccc(Cl)cc1 | -1.17% |
| CCOc1nc(-c2ccc(C)cc2)ccc1-c1noc(COC)n1 | 3.73% |
| Cc1cccc(CN2C(=O)CSc3nc(C)cc(C)c32)c1 | -7.93% |
| CN1CCN(CCc2nnc(S)n2-c2cccc(OCc3ccccc3)c2)CC1 | 20.7% |
| CCC(C)Nc1nc(OCC(F)(F)F)nc(OCC(F)(F)F)n1 (stereo not shown) | 19% |
| CCC(=O)N1c2ccccc2N=C2CC(c3ccco3)CC(O)=C2C1c1ccc(OC)cc1 (stereo not shown) | 2.24% |
| CC(=O)C1(C)N(O)C(C)(C)C(c2ccc(C)cc2)=[N+]1[O-] (stereo not shown) | -3.41% |
| CCCCNC(=O)c1ccc(CS(=O)Cc2ccc(Cl)cc2)o1 (stereo not shown) | -5.12% |
| Cc1ccccc1C(=O)NC1(C(F)(F)F)C(=O)N(CC2CCCO2)C2=C1C(=O)CC(C)(C)C2 (stereo not shown) | 1.96% |
| Cc1cc(C(=O)N2CCc3ccccc3C2)on1 | -1.7% |
| C/N=c1\c(N)c(O)oc2ccccc12 | -3.55% |
| COc1ccc(C2C(C(=O)Nc3ccc(Cl)cc3)=C(C)Nc3ncnn32)cc1 (stereo not shown) | -0.425% |
| O=C(NCCc1ccccc1)c1ccccc1Br | 2.13% |
| O=C1C2C(c3ccccc3)OC3(C(=O)c4ccccc4C3=O)C2C(=O)N1c1ccccc1Cl (stereo not shown) | 16% |
| CCc1ccc(/N=C2\S/C(=C/c3ccncc3)C(=O)N2C)cc1 | -1.24% |
| N#Cc1ccc(-c2ccc(OCC(=O)Nc3cccnc3)cc2)cc1 | 3.24% |
| CCN(CC)C(=O)c1sc(NC(=O)COc2ccc(Cl)cc2)c(C#N)c1C | -4.75% |
| c1ccc(-c2cc(-n3c(-c4ccccc4)nc4ccccc43)n(-c3ccccc3)n2)cc1 | -0.807% |
| O=C(Nc1nnc(C2CCCCC2)s1)C1c2ccccc2Oc2ccccc21 | -1.52% |
